{
  "source": "PubChem BioAssay AID2147",
  "about": "(National Center for Advancing Translational Sciences (NCATS), 2009)",
  "note": "The whole screen tested about 230,000 compounds, of which about 3,600 (1.6%) were called active. This list was built around the results that the source calls inconclusive (neither active nor inactive); the mix of calls is not that of the screen. Calls follow the shape of the dose curve; as a rule, active = well fitted inhibition curve with a large enough effect (not every such curve was filed as active); inconclusive = small, poorly fitted or top-dose-only effect, or another doubt; inactive = no such curve, though single readings can be large or run the other way. Potencies beside an inconclusive call are fits to weak or partial responses and may not hold up. Also: nearly all actives have a fitted effect of over 50% in size. Potency is read from the fitted curve at half-maximal effect; tags tell the direction and shape of the fitted curve.",
  "data": [
    {"biological_target": "Lysine-specific demethylase 4E (Homo sapiens) (UniProt B2RXH2)", "sequence (B2RXH2 whole entry, looked up, the tested form may be a part)": "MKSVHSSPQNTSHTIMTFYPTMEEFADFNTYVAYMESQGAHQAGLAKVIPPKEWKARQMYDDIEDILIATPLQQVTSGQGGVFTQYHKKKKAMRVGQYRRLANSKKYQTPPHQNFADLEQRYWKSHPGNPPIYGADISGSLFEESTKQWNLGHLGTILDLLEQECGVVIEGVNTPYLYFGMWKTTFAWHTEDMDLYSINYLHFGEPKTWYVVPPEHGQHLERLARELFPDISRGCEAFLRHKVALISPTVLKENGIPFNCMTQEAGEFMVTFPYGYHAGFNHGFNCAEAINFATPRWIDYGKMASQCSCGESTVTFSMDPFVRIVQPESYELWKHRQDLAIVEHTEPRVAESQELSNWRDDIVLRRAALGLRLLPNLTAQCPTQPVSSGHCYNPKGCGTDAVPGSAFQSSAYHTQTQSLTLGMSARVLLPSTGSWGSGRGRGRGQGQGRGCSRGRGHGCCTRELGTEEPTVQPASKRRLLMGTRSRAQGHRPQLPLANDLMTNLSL", "assay": "qHTS Assay for Inhibitors of Human Jumonji Domain Containing 2E (JMJD2E)", "conditions": "JMJD2E catalytic domain, FDH-coupled NADH fluorescence (FDH is formaldehyde dehydrogenase); series mostly up to 57.1 µM", "values": [
      {"smiles": "CCOC(=O)c1cccc2c1-c1ccccc1/C2=N/O", "Potency": "inactive"},
      {"smiles": "CCOC(=O)/C(C#N)=C/c1cccn1-c1ccc(Cl)cc1", "Potency": "inconclusive: 44.7 µM [inhibitor, partial curve, poor fit]"},
      {"smiles": "Cc1ccc(NS(=O)(=O)c2cccc(C(=O)O)c2)cc1S(=O)(=O)N1CCOCC1", "Potency": "inactive"},
      {"smiles": "O=C(CSc1nnc2ccccn12)NNC(=O)c1ccc([N+](=O)[O-])cc1", "Potency": "inactive"},
      {"smiles": "CC(OC(=O)C1=Cc2ccccc2OC1)C(=O)NCc1ccco1", "note": "(stereo unspecified)", "Potency": "inconclusive: 35.5 µM [inhibitor, single point]"},
      {"smiles": "Cc1ccc(NNC(=O)c2snnc2C)cc1Cl", "Potency": "inconclusive: 22.4 µM [inhibitor, single point]"},
      {"smiles": "CCc1cc(=S)n2c([nH]c3ccccc32)c1C#N", "Potency": "inconclusive: 12.6 µM [inhibitor, partial curve]"},
      {"smiles": "O=C(COc1ccc(Cl)cc1Cl)N1CCN(c2ccccn2)CC1", "Potency": "inconclusive: 25.1 µM [inhibitor, single point]"},
      {"smiles": "Nc1c(C(=O)O)sc2nc(-c3ccccc3)cc(-c3ccc(F)cc3)c12", "Potency": "inconclusive: 39.8 µM [inhibitor, single point]"},
      {"smiles": "O=C1/C(=C\\c2ccco2)SC(=S)N1c1ccccc1", "Potency": "active: 20 µM"},
      {"smiles": "COc1ccccc1NC(=O)Nc1cnccn1", "Potency": "inconclusive: 22.4 µM [inhibitor, partial curve]"},
      {"smiles": "O=C(O)c1ccc(C(=O)c2ccc3c(c2)C(=O)N(Cc2ccco2)C3=O)cc1", "Potency": "inactive"},
      {"smiles": "O=c1[nH]c(CCl)nc2cc(-c3ccc(Cl)cc3)sc12", "Potency": "inconclusive: 39.8 µM [inhibitor, single point]"},
      {"smiles": "O=C(O)C1=CCCN(CCON=C(c2ccccc2)c2ccccc2)C1", "Potency": "inconclusive: 39.8 µM [inhibitor, single point]"},
      {"smiles": "O=C(c1cc2c(=O)n3ccccc3nc2s1)N1CCOCC1", "Potency": "inconclusive: 3.55 µM [inhibitor, full curve]"},
      {"smiles": "O=C1NC(c2ccco2)Nc2sc3c(c21)CCN(Cc1ccccc1)C3", "note": "(stereo unspecified)", "Potency": "inactive"},
      {"smiles": "COc1ccc(OC)c(C2C3CN(C(C)C)CC=C3C(C#N)=C(N)C2(C#N)C#N)c1", "note": "(stereo unspecified)", "Potency": "inconclusive: 17.8 µM [inhibitor, partial curve]"},
      {"smiles": "CN(C)S(=O)(=O)c1ccc(NC(=O)COC(=O)c2n[nH]c3ccccc23)cc1", "Potency": "inconclusive: 31.6 µM [inhibitor, single point]"},
      {"smiles": "O=c1oc2ccc3ccccc3c2cc1-c1nnc(-c2ccccc2)o1", "Potency": "inconclusive: 11.2 µM [inhibitor, partial curve]"},
      {"smiles": "Cc1ccc2cc(C3C(C#N)=C(N)Oc4c3ccc3cccnc43)c(=O)[nH]c2c1", "note": "(stereo unspecified)", "Potency": "inconclusive: 7.08 µM [inhibitor, partial curve]"},
      {"smiles": "Cc1ccc(S(=O)(=O)N/N=C/c2ccc(OC3CSC3)cc2)cc1", "Potency": "inactive"},
      {"smiles": "C=CCOc1ccc(C2C(C#N)=C(N)N(Nc3ccccc3)C3=C2C(=O)CC(C)(C)C3)cc1OC", "note": "(stereo unspecified)", "Potency": "inconclusive: 7.94 µM [inhibitor, partial curve]"},
      {"smiles": "O=C(NNc1nc(-c2ccc(F)cc2)cs1)c1ccccc1", "Potency": "inconclusive: 39.8 µM [inhibitor, single point]"},
      {"smiles": "CCOc1ccc(-c2nnc(-c3ccco3)o2)cc1", "Potency": "inconclusive: 28.2 µM [inhibitor, partial curve]"},
      {"smiles": "CCC(=O)Nc1nc2ccccc2n1Cc1ccccc1Cl", "Potency": "inconclusive: 14.1 µM [inhibitor, partial curve, poor fit]"},
      {"smiles": "CCN(C(=O)c1ccc(C(C)(C)C)cc1)c1nnc(Cn2nnc3ccccc32)s1", "Potency": "inactive"},
      {"smiles": "COc1ccc(/C=N/n2c(=O)[nH]c3c([nH]c4ccc(F)cc43)c2=O)cc1CN1CCCCC1", "Potency": "inconclusive: 14.1 µM [inhibitor, partial curve]"},
      {"smiles": "C/C(=N/NC(N)=S)c1cc2ccc(O)cc2oc1=O", "Potency": "inconclusive: 35.5 µM [inhibitor, partial curve]"},
      {"smiles": "CCOc1ccc(CCn2c(-c3ccco3)nc3ccccc3c2=O)cc1OCC", "Potency": "inconclusive: 35.5 µM [inhibitor, single point]"},
      {"smiles": "O=C(NCc1ccco1)c1ccc(N2CCCC2=O)cc1", "Potency": "inactive"},
      {"smiles": "O=C(NC1CCCCC1)C(c1cccs1)N(CCCN1CCOCC1)C(=O)c1ccc(-c2ccccc2)[nH]1", "note": "(stereo unspecified)", "Potency": "inconclusive: 39.8 µM [inhibitor, single point]"},
      {"smiles": "Cc1c(C(=O)OC(C)C)sc2nc[nH]c(=O)c12", "Potency": "inconclusive: 39.8 µM [inhibitor, single point]"},
      {"smiles": "Cc1c(C=N)c(O)n(C)c(=O)c1C#N", "Potency": "inconclusive: 31.6 µM [inhibitor, single point]"},
      {"smiles": "O=C(O)COc1ccc2nsnc2c1Cl", "Potency": "inconclusive: 25.1 µM [inhibitor, partial curve]"},
      {"smiles": "COc1ccccc1-c1nnc2sc(-c3ccc(N(C)C)cc3)nn12", "Potency": "inconclusive: 28.2 µM [inhibitor, partial curve]"},
      {"smiles": "O=C(NCc1ccncc1)C(=O)NCC1OCCCN1S(=O)(=O)c1ccccc1", "note": "(stereo unspecified)", "Potency": "inactive"},
      {"smiles": "CCOc1ccc(NC(=O)C2CCC(N3C(=O)C4CC=CCC4C3=O)CC2)cc1", "note": "(stereo unspecified)", "Potency": "inactive"},
      {"smiles": "CCNC(=O)c1ccc2c(c1)C1C3CCC(C3)C1C(c1ccccc1)N2", "note": "(stereo unspecified)", "Potency": "inconclusive: 39.8 µM [inhibitor, single point]"},
      {"smiles": "Cc1ccc(NC(=S)NNc2ccc([N+](=O)[O-])cc2S(=O)(=O)Nc2ccccc2C(=O)O)cc1C", "Potency": "inconclusive: 31.6 µM [inhibitor, single point]"},
      {"smiles": "CCOC(=O)c1[nH]cnc1C(=O)Nc1ccc(C)cc1", "Potency": "inconclusive: 35.5 µM [inhibitor, single point]"},
      {"smiles": "CCc1nnc(NC(=O)c2sc3nc4c(cc3c2N)CCCCCC4)s1", "Potency": "inconclusive: 7.08 µM [inhibitor, partial curve]"},
      {"smiles": "CCOc1cccc(C(=O)Nc2cccc(-c3nnc(-c4ccc(C)cc4)o3)c2)c1", "Potency": "inconclusive: 6.31 µM [inhibitor, single point]"},
      {"smiles": "CN(C)c1nc(N2CCN(c3ccccc3)CC2)c(C#N)c(=O)o1", "Potency": "inactive"},
      {"smiles": "CC1CCN(C(=O)CCc2nc3cc(S(=O)(=O)N(C)C)ccc3n2C)CC1", "Potency": "inactive"},
      {"smiles": "Cc1nn2c(CN(C(=O)CN3CCOCC3)c3ccccc3)nnc2c2ccccc12", "Potency": "inactive"},
      {"smiles": "CC(=O)c1c(N2CCN(Cc3ccccc3)CC2)nc(=S)n(-c2ccccc2)c1C", "Potency": "inconclusive: 25.1 µM [inhibitor, single point]"},
      {"smiles": "Cc1ccc(N2C(=O)CN(Cc3cccs3)C2=S)cc1C", "Potency": "inactive"},
      {"smiles": "CC(C)Oc1ncnc2c1[nH]c1ccccc12", "Potency": "inconclusive: 28.2 µM [inhibitor, partial curve]"},
      {"smiles": "COCCNC(=O)C(C)OC(=O)C1=Cc2ccccc2OC1", "note": "(stereo unspecified)", "Potency": "inconclusive: 31.6 µM [inhibitor, single point]"},
      {"smiles": "COc1ccc(C(NC(=O)C(C)C)c2c(O)ccc3ccccc23)cc1", "note": "(stereo unspecified)", "Potency": "inconclusive: 28.2 µM [inhibitor, partial curve]"},
      {"smiles": "Cc1ccc(C(C[N+](=O)[O-])c2c(-c3ccccc3O)[nH][nH]c2=O)cc1", "note": "(stereo unspecified)", "Potency": "inconclusive: 7.08 µM [inhibitor, single point]"},
      {"smiles": "CSc1nc2cc(C)nn2c(-c2ccc(C(C)(C)C)cc2)c1C#N", "Potency": "inconclusive: 39.8 µM [inhibitor, partial curve, poor fit]"},
      {"smiles": "COc1ccc(/C=C(\\C#N)C(=O)Nc2ccc3[nH]c(=O)[nH]c3c2)cc1", "Potency": "inconclusive: 28.2 µM [inhibitor, partial curve]"},
      {"smiles": "Cc1ccc(-c2nc3ncccn3c2NC2CCCC2)o1", "Potency": "inconclusive: 39.8 µM [inhibitor, single point]"},
      {"smiles": "Cc1ccc(C)c(N2CCN(C(=O)c3ccc4nc(-c5ccco5)c(-c5ccco5)nc4c3)CC2)c1", "Potency": "inconclusive: 31.6 µM [inhibitor, single point]"},
      {"smiles": "COC(=O)NC(c1ccccc1)c1c[nH]c2ccccc12", "note": "(stereo unspecified)", "Potency": "inactive"},
      {"smiles": "CN(C)CCc1cc2c(c3c1ccc1ccccc13)OCO2", "Potency": "inconclusive: 28.2 µM [inhibitor, partial curve]"},
      {"smiles": "O=C(NCc1ccco1)C1CC(c2c(Cl)cccc2Cl)=NO1", "note": "(stereo unspecified)", "Potency": "inactive"},
      {"smiles": "O=c1[nH]c(/C(Cl)=C/c2cc(Cl)ccc2O)nc2cc(Cl)ccc12", "Potency": "inconclusive: 28.2 µM [inhibitor, single point]"},
      {"smiles": "C=CCn1c2[n+](c3ccccc3c1=O)CCCCC2", "Potency": "inconclusive: 35.5 µM [inhibitor, single point]"},
      {"smiles": "O=C(N/N=C/c1ccc(OCc2ccccc2)cc1)c1cc[n+](Cc2ccccc2)cc1", "Potency": "active: 31.6 µM"},
      {"smiles": "O=S(=O)(Nc1cc(Sc2ncn[nH]2)c(O)c2ccccc12)c1ccccc1", "Potency": "active: 12.6 µM"},
      {"smiles": "O=C(Nc1ccccc1F)c1coc(=O)c(Br)c1", "Potency": "inconclusive: 3.55 µM [inhibitor, full curve]"},
      {"smiles": "N/C(Cc1ccc([N+](=O)[O-])cc1)=N\\OC(=O)c1ccc2ccccc2c1", "Potency": "inconclusive: 35.5 µM [inhibitor, single point]"},
      {"smiles": "O=C(NN1C(=O)C2C3c4ccccc4C(c4ccccc43)C2C1=O)C1CC1", "note": "(stereo unspecified)", "Potency": "inactive"},
      {"smiles": "O=C1C2C3C=CC(C3)C2C(=O)N1/N=C/c1cc(Br)cc([N+](=O)[O-])c1O", "note": "(stereo unspecified)", "Potency": "inactive"},
      {"smiles": "Cc1cc(Br)ccc1OCCCCNC(C)(C)C", "Potency": "inactive"},
      {"smiles": "O=S(=O)(c1ccc(NC(=S)N/N=C/c2ccc(O)c(O)c2)cc1)N1CCOCC1", "Potency": "active: 12.6 µM"},
      {"smiles": "Cc1cc(C)n2c(Nc3ccc4c(c3)OCCO4)c(-c3ccc(C)o3)nc2n1", "Potency": "inactive"},
      {"smiles": "O=C(COc1ccc2oc(-c3ccco3)cc(=O)c2c1)N1CCCCC1", "Potency": "inconclusive: 31.6 µM [inhibitor, partial curve]"},
      {"smiles": "CCOc1ccc(N2C(=O)CC(Sc3nc(-c4cccs4)cc(C(F)(F)F)c3C#N)C2=O)cc1", "note": "(stereo unspecified)", "Potency": "inconclusive: 25.1 µM [inhibitor, partial curve]"}
    ]}
  ]
}
